# The shares of active, inactive and inconclusive entries below differ from those in the screen. For some assays here: No potency is given beside an inconclusive call; the fits are too rough. The source made the active and inactive calls. Unless noted, the call rests on the fitted dose curve; in most records, active means well fitted curve in the direction sought with a large enough effect; inconclusive means small, poorly fitted or top-dose-only effect, or another doubt; inactive means no such curve, though single readings can be large; an effect the other way counts as inactive or inconclusive.
# Tests used:
# [1] = qHTS of pediatric cancer cell lines to identify multiple opportunities for drug repurposing: Primary screen for SJ-GBM2 cells (AID 1347091)
# In short: (§1)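 Viability measured as metabolically active cells via CellTiter-Glo luminescence following 48 hours of compound exposure, 11-point dilutions in confirmatory testing. 500-1,000 cells/well plated 5 hours before dosing; controls were DMSO and 2.3 µM bortezomib.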
# [2] = qHTS of pediatric cancer cell lines to identify multiple opportunities for drug repurposing: Primary screen for U-2 OS cells (AID 1347096); further: nearly all actives have a fitted effect of over 50% in size
# In short: (§2)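 Viability after 48 h compound treatment at 37C, 500-1,000 cells/well, read as ATP luminescence with CellTiter-Glo. Primary screens used 11-point (MIPE, 0.78 nM-46 µM) or 8-point (NPC, 0.59 nM-46 µM) final concentrations; follow-up screens used 11-point dilutions.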
# [3] = qHTS of pediatric cancer cell lines to identify multiple opportunities for drug repurposing: Primary screen for LAN-5 cells (AID 1347100)
# In short: as §2
# [4] = qHTS of pediatric cancer cell lines to identify multiple opportunities for drug repurposing: Confirmatory screen for SJ-GBM2 cells (AID 1347116); further: nearly all actives have a fitted effect of over 60% in size
# In short: as §1
# [5] = Quantitative High-Throughput drug screen in 47 multiple myeloma cell lines against the NCATS MIPE library collection: FR4_PLB cell viability assay (AID 1918924; further: nearly all actives have a fitted effect of over 35% in size)
# In short: (§3)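 Myeloma cell lines, 500 cells per well, exposed to MIPE 4.0 library compounds for 48 h at 37C, 5% CO2. Viability from ATP by CellTiter-Glo luminescence; normalised to DMSO (100%) and media-only (0%) wells.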
# [6] = Quantitative High-Throughput drug screen in 47 multiple myeloma cell lines against the NCATS MIPE library collection: Karpas417_ECACC cell viability assay (AID 1918961); settings: Karpas417 myeloma viability, CellTiter-Glo ATP luminescence, 48 h; viability (% of DMSO): at 45.8 µM (top of the series)
# In short: as §3
# [7] = Quantitative High-Throughput drug screen in 47 multiple myeloma cell lines against the NCATS MIPE library collection: KHM11_PLB cell viability assay (AID 1918962); settings: KHM11 myeloma cell viability, CellTiter-Glo ATP luminescence, 48 h; viability, % of DMSO control: at 45.8 µM (top of the series); further: nearly all actives have a fitted effect of over 35% in size
# In short: as §3
# [8] = Quantitative High-Throughput drug screen in 47 multiple myeloma cell lines against the NCATS MIPE library collection: JIM1_ECACC cell viability assay (AID 1918964)
# In short: (§4)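 Primary qHTS used for cherry-picking: cells at 500/well, library compounds for 48 h (37C, 5% CO2), luminescent ATP assay.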
# [9] = Quantitative High-Throughput drug screen in 47 multiple myeloma cell lines against the NCATS MIPE library collection: KMS21BM_JCRB cell viability assay (AID 1918974); settings: ATP luminescence, 48 h; viability: at 45.8 µM (top of the series)
# In short: as §4
# [10] = Quantitative High-Throughput drug screen in 47 multiple myeloma cell lines against the NCATS MIPE library collection: MOLP8_DSMZ cell viability assay (AID 1918977); further: nearly all actives have a fitted effect of over 45% in size
# In short: (§5)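 500 cells/well per myeloma line exposed to pinned MIPE 4.0 compounds for 48 h at 37 °C, 5% CO2. Viability read as ATP by CellTiter-Glo luminescence, normalised to DMSO-only (100%) and media-only (0%) wells.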
# [11] = Quantitative High-Throughput drug screen in 47 multiple myeloma cell lines against the NCATS MIPE library collection: L363_DSMZ cell viability assay (AID 1918984); settings: L363 myeloma viability, CellTiter-Glo ATP luminescence, 48 h; viability (% of control): at 45.8 µM (top of the series); further: nearly all actives have a fitted effect of over 40% in size
# In short: as §5
# [12] = Quantitative High-Throughput drug screen in 47 multiple myeloma cell lines against the NCATS MIPE library collection: UTMC2_PLB cell viability assay (AID 1919868); settings: CellTiter-Glo ATP luminescence, 48 h; viability (% of DMSO control): at 45.8 µM (top of the series); further: nearly all actives have a fitted effect of over 55% in size
# In short: as §5
# [13] = Quantitative High-Throughput drug screen in 47 multiple myeloma cell lines against the NCATS MIPE library collection: OPM2_DSMZ cell viability assay (AID 1919872); further: nearly all actives have a fitted effect of over 30% in size
# In short: as §4
# [14] = tested on: MKL-1; assay: qHTS assay to identify novel small-molecules to repurpose for Merkel cell carcinoma treatment (AID 1296009); settings: MCC and control cell lines, CellTiter-Glo viability, 72 h; activity change, negative = cytotoxicity: at 46 µM (top of the series); further: nearly all actives have a fitted effect of over 60% in size; on activity change, negative = cytotoxicity: on the % scale 0 is the no-effect control and ±100 the full control effect
# In short: (§6)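 Cells were treated for 72 hr at 37 degree celsius with compounds in 8- or 11-point dose response. Viability was read by CellTiter-Glo luminescence, normalized to no-cell (cytotoxicity) and DMSO controls.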
# [15] = tested on: UISO; assay: as above; settings: MCC and control cell lines, CellTiter-Glo viability, 72 h; activity change, negative = cytotoxicity: at 46 µM (top of the series)
# In short: as §6
# [16] = qHTS to identify inhibitors of the type 1 interferon - major histocompatibility complex class I in skeletal muscle: primary screen against the NCATS Mechanism Interrogation Plate v5.0 (MIPE) Libary (AID 1347411); settings: iHSKM cells + IFN-b, HiBiT-tagged MHC-I luminescence, 24 h; activity change, negative = inhibition: at 45.8 µM (top of the series); further: nearly all actives have a fitted effect of over 65% in size
# In short: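 Luminescence from HiBiT-tagged endogenous HLA-B*08:01 served as the MHC class I read-out. CRISPR-engineered C25cl48 human myoblasts received 4.0 ng/ml IFN-beta plus compound for 24 hrs, with an 11-point, 1:3 series topping at 46 uM final.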
# [17] = tested on: MKL-2; assay: qHTS assay to identify novel small-molecules to repurpose for Merkel cell carcinoma treatment (AID 1296009); settings: MCC and control cell lines, CellTiter-Glo viability, 72 h; activity change, negative = cytotoxicity: at 46 µM (top of the series); further: nearly all actives have a fitted effect of over 60% in size; on activity change, negative = cytotoxicity: on the % scale 0 is the no-effect control and ±100 the full control effect
# In short: as §6
# [18] = target: Cytochrome P450 2C9 (Homo sapiens) (UniProt P11712); assay: Cytochrome P450 family 2 subfamily C member 9 (CYP2C9) small molecule antagonists: luciferase biochemical (cell-free) qHTS assay (AID 1645842; active means well fitted curve in the direction sought with a large enough effect in the repeat runs; inconclusive means weak or mixed curves; inactive means no such curve, though single readings can be large; an effect the other way counts as inactive or inconclusive; further: nearly all actives have a fitted effect of over 55% in size)
# Sequence of UniProt P11712 (P11712 whole entry, looked up): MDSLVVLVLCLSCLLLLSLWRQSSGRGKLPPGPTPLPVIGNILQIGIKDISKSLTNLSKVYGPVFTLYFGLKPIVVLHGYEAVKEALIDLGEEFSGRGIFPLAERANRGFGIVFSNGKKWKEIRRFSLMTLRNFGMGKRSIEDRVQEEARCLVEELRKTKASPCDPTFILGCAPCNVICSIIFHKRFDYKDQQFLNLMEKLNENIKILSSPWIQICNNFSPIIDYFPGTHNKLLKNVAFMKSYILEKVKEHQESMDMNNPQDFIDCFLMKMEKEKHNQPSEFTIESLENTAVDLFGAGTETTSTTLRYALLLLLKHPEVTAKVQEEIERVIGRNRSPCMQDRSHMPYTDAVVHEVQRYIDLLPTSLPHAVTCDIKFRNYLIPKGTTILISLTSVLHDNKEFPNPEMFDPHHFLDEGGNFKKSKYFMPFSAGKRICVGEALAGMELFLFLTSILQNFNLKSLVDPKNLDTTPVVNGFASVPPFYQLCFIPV
# In short: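 Luminescence, after 20 min with luciferin detection reagent, reflected CYP2C9 turnover during a 1 h NADPH-driven reaction at 37C. Enzyme-substrate mix contained 0.4% bovine serum albumin and was preincubated with compound 10 min at room temperature.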
# [19] = qHTS of pediatric cancer cell lines to identify multiple opportunities for drug repurposing: Primary screen for Saos-2 cells (AID 1347097); further: nearly all actives have a fitted effect of over 40% in size
# In short: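 ATP-based luminescence (CellTiter-Glo) quantifies viability after a 48-hour exposure. Compounds are dosed across 8 or 11 final concentrations; DMSO and 2.3 µM bortezomib serve as controls.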
# [20] = target: Phospholipid hydroperoxide glutathione peroxidase GPX4 (Homo sapiens) (UniProt P36969); assay: Primary qHTS Assay for Inhibitors of Recombinant Selenoprotein Glutathione Peroxidase 4 (GPX4) (AID 1845192); further: nearly all actives have a fitted effect of over 65% in size
# Sequence of UniProt P36969 (P36969 whole entry, looked up): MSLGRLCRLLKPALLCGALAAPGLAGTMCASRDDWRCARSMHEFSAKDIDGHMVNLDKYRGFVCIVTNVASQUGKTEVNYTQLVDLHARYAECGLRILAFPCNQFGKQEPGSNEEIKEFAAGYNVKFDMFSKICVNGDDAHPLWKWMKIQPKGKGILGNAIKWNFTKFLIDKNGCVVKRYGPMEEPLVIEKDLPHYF
# In short: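 GR-coupled assay: recombinant GPX4 preincubated 30 min with compound at room temperature; final 200 nM GPX4, 1 mM GSH, 0.5 mM cumene hydroperoxide, 0.5 mM NADPH, 100 nM GR, 0.01% BSA, pH 7.5 Tris. NADPH fluorescence (340/450 nm) read at 0 and 15 min.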
# Potency means the concentration at half of the fitted maximal effect; tags describe the fitted curve by direction and shape.
structure (smiles),measurement,setting,value
O=C1NCCc2[nH]c(-c3ccncc3)cc21,Potency,[1],active: 2.35 µM
same,Potency,[2],"inconclusive [cytotoxic, full curve, poor fit]"
same,Potency,[3],"inconclusive [cytotoxic, full curve, poor fit]"
same,Potency,[4],"inconclusive [cytotoxic, full curve]"
same,Potency,[5],active: 1.87 µM
same,Potency,[6],"inconclusive [cytotoxic, full curve, poor fit]"
same,Potency,[7],active: 2.09 µM
same,Potency,[8],active: 0.662 µM
same,Potency,[9],"inconclusive [cytotoxic, full curve, poor fit]"
same,Potency,[10],active: 1.66 µM
same,Potency,[11],active: 2.35 µM
same,Potency,[12],active: 3.72 µM
same,Potency,[13],active: 14.8 µM
same,Potency,[14],"inconclusive [inhibitor, full curve]"
same,Potency,[15],active: 4.18 µM
CNC(=O)c1ccccc1Sc1ccc2c(/C=C/c3ccccn3)n[nH]c2c1,Potency,[2],"inconclusive [cytotoxic, single point]"
same,Potency,[3],"inconclusive [cytotoxic, full curve]"
same,Potency,[16],"inconclusive [inhibitor, partial curve]"
same,Potency,[14],"inconclusive [inhibitor, full curve]"
same,Potency,[17],"inconclusive [inhibitor, partial curve, poor fit]"
same,Potency,[15],"inconclusive [inhibitor, partial curve]"
CC(=O)SCC(=O)c1ccc(NS(=O)(=O)c2ccc(OCCCN(C)C)cc2)nc1,Potency,[18],"inconclusive [inhibitor, partial curve]"
CCCOc1ccc(CCc2nc3cc(-c4c(C)noc4C)ccc3n2CCN2CCOCC2)cc1,Potency,[16],"inconclusive [inhibitor, single point]"
Cc1c(Cn2c(C)nc3c(C(=O)O)cc(N4CCOCC4)cc32)cccc1C(F)(F)F,Potency,[19],"inconclusive [cytotoxic, partial curve]"
same,Potency,[4],inactive
same,Potency,[5],active: 5.9 µM
same,Potency,[7],"inconclusive [cytotoxic, full curve, poor fit]"
same,Potency,[8],"inconclusive [cytotoxic, full curve, poor fit]"
same,Potency,[9],"inconclusive [cytotoxic, full curve, poor fit]"
same,Potency,[10],inactive
same,Potency,[11],"inconclusive [cytotoxic, partial curve]"
same,Potency,[12],"inconclusive [cytotoxic, partial curve, poor fit]"
same,Potency,[13],inactive
same,Potency,[17],inactive
CCS(=O)(=O)Nc1ccc2[nH]c(O)c(C(=Nc3ccc(CN4CCCCC4)cc3)c3ccccc3)c2c1,Potency,[1],"inconclusive [cytotoxic, partial curve, poor fit]"
same,Potency,[2],active: 5.9 µM
same,Potency,[4],active: 14.7 µM
same,Potency,[5],active: 18.7 µM
same,Potency,[6],active: 0.105 µM
same,Potency,[7],active: 0.418 µM
same,viability,[9],inconclusive: 21.6% [cytotoxic]
same,Potency,[10],"inconclusive [cytotoxic, partial curve, poor fit]"
same,Potency,[11],active: 0.0526 µM
same,Potency,[12],active: 0.0935 µM
same,Potency,[14],"inconclusive [inhibitor, full curve]"
[Cl][In]([Cl])[Cl],Potency,[15],"inconclusive [inhibitor, partial curve]"
CC(=O)O[C@@H]1C(=O)O[C@@H]2[C@H]1OC(=O)[C@@H]2OC(C)=O,Potency,[3],"inconclusive [cytotoxic, single point]"
same,Potency,[4],"inconclusive [cytotoxic, full curve, poor fit]"
same,Potency,[15],inactive
CN(C)CCCCC(=O)Nc1ccc(NC(=S)NC(=O)c2ccc(C(C)(C)C)cc2)cc1,Potency,[20],"inconclusive [inhibitor, partial curve]"

# Source: PubChem BioAssay (NCATS)
